Results: PubChem BioAssay AID1508623 (National Center for Advancing Translational Sciences (NCATS), 2021)
The whole screen tested about 48,000 compounds, of which about 450 (0.94%) were called active. Not shown: some 19% with an inconclusive outcome. The call rests on the fitted dose curve; in most records, active means well fitted inhibition curve with a large enough effect; inconclusive means small, poorly fitted or top-dose-only effect; inactive means no such curve, though single readings can be large or run the other way. The list shows a part of the results.

Test: Primary qHTS for Identification of Small Molecule Inhibitors of Huntingtin Promoter Activity; further: nearly all actives have a fitted effect of over 50% in size
Details: HEK293 HTT promoter firefly luciferase reporter (activity 0% = vehicle and -100% = no light), 24 h; series mostly up to 57.5 µM; activity change, negative = inhibition: at the top concentration
Method in brief: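 Quantitative HTS used concentration series of up to 57.5 uM final on HEK293 luciferase reporter cells, 24 h at 37 degrees C. Readout was Dual-Glo firefly luminescence.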

| SMILES | activity change, negative = inhibition |
| --- | --- |
| Cc1ccc(CNC(=O)CCc2c(C)nc3nc(C)nn3c2C)cc1 | inactive: -9.61% |
| Cc1ccc(OCC(=O)Nc2cccc(OCc3cc(=O)n4cccc(C)c4n3)c2)cc1C | inactive: 6.11% |
| Cc1ccc(CCNC(=O)CCCn2c(=O)c3ccccc3n(Cc3ccccc3C#N)c2=O)cc1 | inactive: -15.3% |
| CCn1cc2c(n1)-c1c(oc(C(=O)Nc3cccc(C)c3C)c1C)CC2 | inactive: 67% |
| CCc1ccc(O)c(C(=O)c2cnc3cc(-c4ccc(C)cc4)nn3c2)c1 | inactive: -1.13% |
| N#Cc1c(C(F)(F)F)cc(-c2cccs2)nc1SCC(=O)Nc1ccccc1F | inactive: -24.8% |
| Cc1cc(C)cc(NC(=O)CSc2oc(-c3ccccc3)nc2S(=O)(=O)c2ccccc2)c1 | inactive: -22% |
| O=C1Cc2cc(CCN3CCN(c4nsc5ccccc45)CC3)c(Cl)cc2N1 | inactive |
| CCOc1ccc(-c2cc(C(=O)NCc3ccccc3Cl)c3ccccc3n2)cc1 | inactive: -2.22% |
| CCn1cc(S(=O)(=O)c2ccccc2)c(=O)c2cc(F)c(N3CCCC3)cc21 | inactive: -22.6% |
| Cc1cc(C)cc(NS(=O)(=O)c2ccc3[nH]cc(C(=O)NC4CCCCC4)c(=O)c3c2)c1 | inactive: -29.8% |
| Cc1cc2nc(-c3cccc(NC(=O)C(C)C)c3C)oc2cc1C | inactive: 18.1% |
| O=C(c1cc(-c2ccccc2O)on1)N1CCCCC1 | inactive: 80.3% |
| CCc1c(C)nc(SCc2nc(-c3ccccc3)no2)[nH]c1=O | inactive: 9.03% |
| O=C(c1ccc2c(c1)N(Cc1ccccc1F)C(=O)c1ccccc1S2(=O)=O)N1CCN(c2ccccc2F)CC1 | inactive: -6.35% |
| CCN(CC)C(=O)c1sc2c(c1C)c(=O)n(CCc1ccccc1)c(=O)n2Cc1ccc(F)cc1Cl | inactive: 0.252% |
| CCOc1ccc(C(=O)Nc2ccc3nn(-c4ccc(OC)c(Cl)c4)nc3c2)cc1 | inactive: -13.4% |
| COc1cc(S(N)(=O)=O)cc(C(=O)O)c1OC | inactive: -0.905% |
| CCN[C@H]1C[C@H](C)S(=O)(=O)c2sc(S(N)(=O)=O)cc21 | inactive |
| COc1ccc2cc(-c3nc(Cl)c4c5c(sc4n3)CC(C)CC5)c(=O)oc2c1 (stereo unspecified) | inactive: -13.4% |
| O=C(Cn1c(=O)n(-c2cccc(Cl)c2)c(=O)c2sc3ccccc3c21)NC1CCCCC1 | inactive: -14.5% |
| CNC(=O)C1CCC(Cn2c(=O)c3sccc3n(CC(=O)NCc3ccc(OC)cc3)c2=O)CC1 (stereo unspecified) | inactive: -20.1% |
| COc1ccccc1NC(=O)c1c(NC(=O)COc2ccccc2)sc2c1CCCCC2 | inactive: -9.26% |
| COc1ccc(CCNC(=O)Cn2c(=O)c3sccc3n(CC(=O)Nc3cccc(C(F)(F)F)c3)c2=O)cc1OC | inactive: 0.558% |
| Cc1ccc(-c2ncc(Cl)cc2-c2ccc(S(C)(=O)=O)cc2)cn1 | inactive: -11% |
| O=C(NCc1cccc(Cl)c1)c1cnc(N2CCCCC2)c2ccccc12 | inactive: -4.35% |
